Hit rate of the full screen: of about 48,000 compounds, about 450 (0.94%) were called active. Another 19% or so got no clear call; they are omitted. Calls come from the whole dose curve; as a rule, active = well fitted inhibition curve with a large enough effect; inconclusive = small, poorly fitted or top-dose-only effect; inactive = no such curve, though single readings can be large or run the other way. This is one part of the list.
Experiment: Primary qHTS for Identification of Small Molecule Inhibitors of Huntingtin Promoter Activity; note: nearly all actives have a fitted effect of over 50% in size
Details: HEK293 HTT promoter firefly luciferase reporter (activity 0% = vehicle and -100% = no light), 24 h; activity change, negative = inhibition: at the top concentration
Source text: Assay Provider: Russell L. Margolis M.D.
Department Neurology, Johns Hopkins University School of Medicine, Baltimore, MD
Huntington's Disease (HD) is a neurodegenerative disorder caused by a CAG repeat expansion in exon 1 of huntingtin (HTT). While there are currently no disease-modifying treatments for HD, recent efforts have focused on development of nucleotide-based therapeutics to lower HTT expression. As an alternative to siRNA or oligonucleotide methods, we hypothesized that suppression of HTT expression might be accomplished by small molecules that either (1) directly decrease HTT expression by suppressing HTT promoter activity or (2) indirectly decrease HTT expression by increasing the promoter activity of HTT-AS, the gene antisense to HTT that appears to inhibit expression of HTT.
We developed and employed a high throughput screen for modifiers of HTT and HTT-AS promoter activity using luminescent reporter HEK293 cells; of the 52,041 compounds tested, we identified 898 replicable hits. We used a rigorous stepwise approach to assess compound toxicity and the capacity of the compounds to specifically lower huntingtin protein in 5 different cell lines, including HEK293 cells, HD lymphoblastoid cells, mouse primary neurons, HD iPSCs differentiated into cortical-like neurons, and HD hESCs. We found no compounds which were able to lower huntingtin without lowering cell viability in all assays, though the potential efficacy of a few compounds at non-toxic doses could not be excluded.
SEQUENCE No. (1, 2, 3, etc.); […] (e.g., Cells, Incubation, Reagent, etc.); VALUE and DESCRIPTION.
1; Reagent; 4 uL; 2,500 Hek293 luciferase reporter cells per wells
3; Compound; 23 nL; Control inhibitor / compound library
5; Reagent; 2.5 uL; Firefly Luc reagent; Dual-Glo Luciferase Reporter Assay System (Promega)
6; Time; 10 min; room temperature incubation
7; Detection; Luminescence; FLuc
NOTES (numbers refer to sequence above)
1; High-throughput screening, measuring luminescence from a Hek293 luciferase reporter, was performed in 1,536 well white-walled tissue-culture treated plates. 2,500 cells were plated in 4 µL of Opti-MEM per well using a Multidrop Combi Reagent Dispenser (ThermoFisher).
2; Assay plates were cultured for 24 hours.
3; Control inhibitor (PTC124; final concentration of 50 uM) and compound library (at final concentrations of 460 nM - 57.5 uM) were added to the assay plate using the Kalypsis Pintool Robotic System equipped with 1536 pinheads.
4; Cells were then incubated for 24 hours at 37 degrees C prior to luminescence measurements.
5; In all cases, luminescence was measured using the Dual-Glo Luciferase Reporter Assay System (Promega) following the manufacturer's instructions.
6; Room temperature incubation.
7; Luminescence signal was obtained using the PerkinElmer ViewLux plate reader. Results were normalized to vehicle control (0% activity) and zero RLU (-100% activity).

Row | SMILES | activity change, negative = inhibition
1 | Oc1ccc2[nH]cc(CCCCN3CC=C(c4ccccc4)CC3)c2c1 | inactive: -9.13%
2 | COc1ccc(-c2nc(CN3C(=O)CN=C(c4ccccc4)c4ccccc43)c(C)o2)cc1OC | inactive: -14%
3 | CCc1ccc(OCC(=O)N2CCN(CCc3ccccn3)CC2)cc1 | inactive: -13.9%
4 | COc1ccccc1-n1c(/C=C/c2ccccc2)nc2ccccc2c1=O | inactive: 1.44%
5 | Cn1c(CCCC(=O)O)nc2cc(N(CCCl)CCCl)ccc21 | inactive
6 | CCCCc1nc2ccccc2c(=O)n1-c1cccc(OC)c1 | inactive: -17.4%
7 | COc1nn(CSP(=S)(OC)OC)c(=O)s1 | inactive: -15.6% [at 116 µM]
8 | CC(Cc1ccccc1)NCCn1cnc2c1c(=O)n(C)c(=O)n2C (configuration not stated) | inactive: -5.03% [at 116 µM]
9 | N[C@@H]1C[C@H]1c1ccccc1 | inactive: 3.05%
10 | CC(C)NCC(O)c1ccc([N+](=O)[O-])cc1 (configuration not stated) | inactive: -5.59%
11 | CCOP(=S)(OCC)O/N=C(\C#N)c1ccccc1 | inactive: 5.75%
12 | C=CC(=O)NCNC(=O)C=C | inactive: 17.5% [at 116 µM]
13 | CSc1ccc(C(c2c(O)c3ccccc3oc2=O)c2c(C)n(C)n(-c3ccccc3)c2=O)cc1 (configuration not stated) | inactive: -21.3%
14 | CN1CCN(c2csc3ccc(F)cc3c2=O)CC1 | inactive: 4.2%
15 | CC(=O)[C@H]1CC[C@H]2[C@@H]3CC[C@H]4C[C@](C)(O)CC[C@]4(C)[C@H]3CC[C@]12C | inactive: 5.43%
16 | NC1=NC(=O)C(c2ccccc2)O1 (configuration not stated) | inactive: 8.49%
17 | CCOC(=O)C1(c2ccccc2)CCN(CCC(C#N)(c2ccccc2)c2ccccc2)CC1 | inactive: -10.9%
18 | CN(C)CCc1ccc(O)cc1 | inactive
19 | CCOc1ccc(-n2c(/C=C/c3ccccc3)nc3ccccc3c2=O)cc1 | inactive: -26%

Row | SMILES | activity change, negative = inhibition
20 | ClCCCN1CCN(c2cccc(Cl)c2)CC1 | inactive: -13.2%
21 | C[C@]12CC[C@H]3[C@@H](CCC4=CC(=O)CC[C@@]43C)[C@H]1CC[C@H]2O | inactive: -5.51%
22 | CCC1(c2ccccc2)C(=O)N(COC)C(=O)N(COC)C1=O | inactive: -3.94%
23 | CCN(CC)C(=O)N[C@@H]1C=C2c3cccc4[nH]cc(c34)C[C@@H]2N(C)C1 | inactive: -13.3%
24 | N#Cc1cc([N+](=O)[O-])ccc1NC(=O)c1cccn(Cc2cccc(F)c2)c1=O | inactive: -11.5%
25 | O=C(Nc1ccc2c(c1)OCCO2)c1cccn(Cc2cccc([N+](=O)[O-])c2)c1=O | inactive: -28.1%
26 | O=C(CCl)c1ccc(Cl)cc1Cl | inactive: -0.253%
27 | C#C[C@]1(O)CC[C@H]2[C@@H]3CCC4=CC(=O)CCC4=C3C=C[C@@]21CC | inactive: -11.9%
28 | Cc1cccc(C)c1NC(=O)CN1CCCC1=O | inactive
29 | O=C(COc1ccccc1[N+](=O)[O-])N1CCN(CCc2ccncc2)CC1 | inactive: -12.7%
30 | Oc1ccc2c3c1O[C@H]1[C@@H](O)C=C[C@H]4[C@@H](C2)NCC[C@@]341 | inactive: -7.45% [at 116 µM]
31 | CCNc1nc(Cl)nc(NCC)n1 | inactive: 0.81%
32 | C[C@@H]1CC2=CC(=O)CC[C@@H]2[C@H]2CC[C@@]3(C)[C@@H](CC[C@]3(C)O)[C@@H]21 | inactive: -16.3%
33 | Cc1cccc(C)c1OCC(=O)Nc1ccc(Cl)cc1C(=O)c1ccccc1 | inactive: -10.1%
34 | CN1CCC(O)(c2ccc(F)cc2)C(C(=O)c2ccc(F)cc2)C1 (configuration not stated) | inactive: 2.41%
35 | COP(=O)(OC)OC=C(Cl)Cl | inactive: 7.03%
36 | CC(C)C(Br)C(=O)NC(N)=O (configuration not stated) | inactive: -5.51%
37 | N#CC(C#N)=Cc1ccc(O)c(O)c1 | inactive: 16.5%
38 | Cc1ccc(-n2c(/C=C/c3cc(Br)cs3)nc3ccccc3c2=O)cc1C | inactive: -30.3%

Row | SMILES | activity change, negative = inhibition
39 | COc1ccc(C)cc1NC(=O)c1cccn(Cc2ccccc2Cl)c1=O | inactive: -6.03%
40 | CC(CC(C#N)(c1ccccc1)c1ccccc1)N(C)C (configuration not stated) | inactive: -18.4% [at 116 µM]
41 | COP(=O)(OC)C(O)C(Cl)(Cl)Cl (configuration not stated) | inactive: 3%
42 | O=c1n(Cl)c(=O)n(Cl)c(=O)n1Cl | inactive: 16.1%
43 | Cn1cc(C2=C(c3cn(C4CCN(Cc5ccccn5)CC4)c4ccccc34)C(=O)NC2=O)c2ccccc21 | inactive
44 | Cn1c(=O)n(C)c2cc(CNCCc3ccccc3F)ccc21 | inactive: -11.2%
45 | C=CCN1CC[C@]23c4c5ccc(O)c4O[C@H]2C(=O)CC[C@@]3(O)[C@H]1C5 | inactive: 10.6%
46 | OCCOc1ccccc1 | inactive: 10.2%
47 | O=C1CC(c2ccccc2Br)c2c(c3ccccc3oc2=O)O1 (configuration not stated) | inactive: -6.37%
48 | ClCc1cccc(Cl)c1 | inactive: -4.05%
49 | O=S(=O)(O)C(F)(F)C(F)(F)C(F)(F)C(F)(F)C(F)(F)C(F)(F)C(F)(F)C(F)(F)F | inactive: 5.2% [at 116 µM]
50 | COc1c2c(cc3c1OCO3)CCN(C)C2 | inactive: 1.79%
51 | C[C@]12CC[C@@H]3c4ccc(OC(=O)N(CCCl)CCCl)cc4CC[C@H]3[C@@H]1CC[C@@H]2OP(=O)(O)O | inactive: 15.4%
52 | N#Cc1ccccc1NC(=O)c1cccn(Cc2ccccc2)c1=O | inactive: -50.4%
53 | O=c1c(C2CC(c3ccc(-c4ccc(Br)cc4)cc3)Cc3ccccc32)c(O)sc2ccccc12 (configuration not stated) | inactive: -26.2%
54 | COC(=O)[C@@H](N)CCCN/C(N)=N/[N+](=O)[O-] | inactive: -6.07%
55 | O=C1C=CC[C@@H]2[C@H]3CCCN4CCC[C@@H](CN12)[C@@H]34 | inactive: -47.9%
56 | Nc1ccc(Cl)cc1 | inactive: -10.5% [at 116 µM]
57 | CN[C@@H](C)[C@H](O)c1ccccc1 | inactive: -6.1%
